# Measurements reported in paper PMC4336329 (PLoS ONE, 2015).
# Hit rate of the full screen: of about 310,000 compounds, about 14,000 (4.5%) showed an effect of 50% or more. The effect is printed as a negative number. The list shows a part of the results.
# Molecular target: human ether-à-go-go-related gene (hERG) potassium channel (human, UniProt Q12809)
# Assay: primary screen, population patch clamp on CHO cells stably expressing hERG
# 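Further: peak tail current of the secondary pulse compared with the same well before compound.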
# Sequence of human ether-à-go-go-related gene (hERG) potassium channel (Q12809 whole entry, looked up): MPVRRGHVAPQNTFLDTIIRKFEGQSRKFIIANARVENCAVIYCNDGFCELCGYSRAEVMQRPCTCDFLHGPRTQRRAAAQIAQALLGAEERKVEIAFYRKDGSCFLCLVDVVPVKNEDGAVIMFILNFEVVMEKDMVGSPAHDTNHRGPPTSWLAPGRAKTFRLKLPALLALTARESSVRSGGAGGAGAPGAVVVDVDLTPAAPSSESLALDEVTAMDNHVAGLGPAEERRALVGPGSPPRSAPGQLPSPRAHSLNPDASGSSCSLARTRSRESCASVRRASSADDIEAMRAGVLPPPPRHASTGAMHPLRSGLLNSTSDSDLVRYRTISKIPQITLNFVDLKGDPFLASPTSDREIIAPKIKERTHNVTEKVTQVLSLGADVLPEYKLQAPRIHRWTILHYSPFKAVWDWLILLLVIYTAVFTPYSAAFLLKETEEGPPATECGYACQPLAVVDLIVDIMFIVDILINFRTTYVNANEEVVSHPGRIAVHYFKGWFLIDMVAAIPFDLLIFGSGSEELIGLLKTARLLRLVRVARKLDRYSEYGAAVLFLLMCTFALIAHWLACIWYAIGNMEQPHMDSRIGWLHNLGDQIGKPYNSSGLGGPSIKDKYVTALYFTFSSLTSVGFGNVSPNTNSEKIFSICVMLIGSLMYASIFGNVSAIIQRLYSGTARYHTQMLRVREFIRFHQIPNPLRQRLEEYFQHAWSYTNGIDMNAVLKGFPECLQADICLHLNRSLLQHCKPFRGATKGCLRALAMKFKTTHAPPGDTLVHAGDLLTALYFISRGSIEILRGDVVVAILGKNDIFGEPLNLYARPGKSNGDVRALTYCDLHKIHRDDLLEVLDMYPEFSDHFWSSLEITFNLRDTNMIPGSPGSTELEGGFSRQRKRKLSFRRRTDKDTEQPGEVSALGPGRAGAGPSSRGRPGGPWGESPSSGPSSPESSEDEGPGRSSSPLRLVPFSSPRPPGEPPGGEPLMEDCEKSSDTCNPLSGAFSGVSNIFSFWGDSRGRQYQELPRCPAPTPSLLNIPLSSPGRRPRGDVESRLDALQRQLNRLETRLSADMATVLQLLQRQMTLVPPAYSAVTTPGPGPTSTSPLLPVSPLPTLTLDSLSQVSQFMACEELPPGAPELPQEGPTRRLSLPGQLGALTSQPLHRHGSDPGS
row,SMILES,"hERG current change (%, negative = inhibition) at 10uM"
1,O=C1c2c(O)cc(O)cc2O[C@H](c2ccc(O)c(O)c2)[C@@H]1O,20.1%
2,CC(C)C[C@H]1COCCS(=O)(=O)N1Cc1cccc(C(F)(F)F)c1,0.3%
3,CC(C)NS(=O)(=O)c1ccc(CCC(=O)N2CCCCC2)cc1,9.5%
4,CC(C)NC(=O)C12CC3CC(C1)CC(n1cnc(Cl)n1)(C3)C2,-4.87%
5,CC(NC(=O)c1ccccc1)C(=O)NC1=NCCS1 (stereo not drawn),6.89%
6,CCCN1C(=O)c2cc(C(=O)Nc3ccccc3C)ccc2C1Nc1ccccc1C (stereo not drawn),-8.84%
7,C/C(=N\OCc1ccc(C#N)cc1)c1cc2ccccc2o1,-4.95%
8,O=C(NC1(Cc2ccccc2)CCN(CCc2cccs2)C1=O)c1ccccc1 (stereo not drawn),-1.81%
9,Cc1ccc(S(=O)(=O)N[C@H](C(=O)N2CCC(C(=O)N[C@@H](CCC(N)=O)C(=O)O)CC2)C(C)C)cc1,12.3%
10,O=C(NCCc1ccccn1)c1nc(Cn2cc([N+](=O)[O-])cn2)no1,1.15%
11,O=C(Cn1c(=O)c(=O)n(Cc2ccccc2)c2ccc(Cl)cc21)Nc1cc(F)ccc1F,-20.4%
12,CCOC(=O)c1ccc(S(=O)(=O)NCC(c2ccc(N(C)C)cc2)c2c[nH]c3ccccc23)cc1 (stereo not drawn),7.71%
13,CCN(/C=N/c1sc2c(c1C#N)CC(C)(C)NC2(C)C)CC,11.8%
14,O=C(N/N=C/c1ccccn1)c1cc(-c2ccccc2)nc2ccccc12,-20.1%
15,O=C(CN1CCN(S(=O)(=O)c2ccc3ccccc3c2)CC1)N1CCc2ccccc2C1,-1.4%
16,c1ccc(-n2cnnc2SCc2cn3ccsc3n2)cc1,7.19%
17,CC(CN1CCCCCC1)C(=O)NN (stereo not drawn),22.2%
18,Cc1nc(Nc2ccccc2)sc1C(=O)c1ccccc1,3.81%
19,CCCn1c(C(C)Nc2nc(-c3ccc(Cl)c([N+](=O)[O-])c3)cs2)nc2cc(Cl)c(N3CCCCC3)cc21 (stereo not drawn),19.2%
20,Cc1cc(-c2cc(C(=O)Nc3ccccc3)on2)nc(NCC2CC2)n1,14.9%
21,COc1cccc(NC(=O)CN(C)CC(=O)Nc2ccccc2-c2ccccc2)c1,-16.5%
22,COc1ccc(-n2nc([N+](=O)[O-])c(=NCCCN3CCCC3=O)n2O)cc1,-0.829%

row,SMILES,"hERG current change (%, negative = inhibition) at 10uM"
1,Cc1ccc(C)c(OCC(=O)Nc2ccc(S(=O)(=O)Nc3ccccn3)cc2)c1C,-9.39%
2,CCCCNC(=O)COC(=O)C1CCN(S(=O)(=O)c2ccc3c(c2)OCCO3)CC1,-2.75%
3,O=C(CSc1nnc(CNc2ccc(F)cc2)o1)OC1CCCCC1,15%
4,CCN1C(=O)/C(=C\c2ccncc2)SC1=S,3.89%
5,CC(C)(C)n1nc2c(c1NC(=O)c1ccccc1)CS(=O)(=O)C2,5.08%
6,CC(C)(C)C(=O)Nc1ccc(C(=O)Nc2cc(NC(=O)c3ccc(NC(=O)C(C)(C)C)cc3)cc(C(=O)O)c2)cc1,6.62%
7,O=C(Nc1ccccc1)N1CCCN(c2nccc(C(F)(F)F)n2)CC1,-5.36%
8,CC(=O)NC1(c2cccc(F)c2)CCN(C(=O)Nc2ccc(C#N)cc2)CC1,-13.8%
9,CC(=O)NC1=NC(=O)/C(=C/c2cc(C)n(-c3ccc(NC(C)=O)cc3)c2C)S1,9.27%
10,CN(C)CCCN(C(=O)c1ccc(S(=O)(=O)N2CCCc3ccccc32)cc1)c1nc2ccc(F)cc2s1.Cl,-17.1%
11,COC(=O)c1ccc(S(=O)(=O)N2CCc3ccccc3C2)cc1,27.7%
12,COc1ccc(S(=O)(=O)N2CCCCC2)cc1C(=O)N1CCCCCC1,0.615%
13,CCCNC(=O)CSc1nnc(-c2ccccc2Br)n1-c1cccc(C(F)(F)F)c1,-28.2%
14,O=C(CSc1nnc2c(n1)[nH]c1ccccc12)OCc1ccccc1,16.5%
15,CCOC(=O)c1[nH]cnc1C(=O)Nc1ccccc1C,-1.39%
16,Cc1onc(-c2ccccc2)c1C(=O)OCC(=O)N1CCC(C)CC1,-7.23%
17,O=C(NCc1cn2ccsc2n1)c1cccc(C(F)(F)F)c1,11.8%
18,CN(C)C(CNC(=O)C1CCN(C(=O)/C=C/c2ccccc2)CC1)c1ccccc1 (stereo not drawn),3.01%
19,Cc1cccc(-c2nc3c(s2)CCc2onc(-c4ccc(Br)cc4)c2-3)c1,15.1%
20,COc1ccc(/C=C2/SC(=O)N(CC(=O)NCCC(C)C)C2=O)cc1OC,9.04%
21,CCc1ccc(S(=O)(=O)n2c(C)nc3ccccc32)cc1,18.9%
22,Nc1[nH+]c(-c2ccc([N+](=O)[O-])cc2)cs1.[Br-],14.1%

row,SMILES,"hERG current change (%, negative = inhibition) at 10uM"
1,O=C(Cc1ccccc1)N/N=C/c1cccs1,15.6%
2,CCc1ccc(CN2CCC(n3nccc3NC(=O)Cc3ccccc3)CC2)o1,-29.6%
3,O=C(CN(Cc1ccccc1Cl)C(=O)c1ccc(CN2CCOCC2)o1)NCc1ccccc1,-18.7%
4,CC12CN3CC(C)(CN(C1)C3c1ccc3c(c1)OCO3)C2 (stereo not drawn),4.87%
5,Cc1ccc(C)c(NC(=O)CN(C)C(=O)c2ccccc2OCc2c(C)noc2C)c1,-38%
6,O=C(Nc1ccccc1F)N1CCCC1c1cccnc1 (stereo not drawn),8.27%
7,CSc1ccc(CNCc2ccco2)cc1.Cl,-4.78%
8,O=c1cc(COn2nnc3ccc(C(F)(F)F)cc32)nc2sccn12,12.9%
9,Cc1ccc(C)c(C(=O)COC(=O)CN2C(=O)C3C4C=CC(C4)C3C2=O)c1 (stereo not drawn),2.01%
10,COc1ccc2c(CSc3nc4nc(C)cc(C)n4n3)cc(=O)oc2c1,-19%
11,CCOc1ccccc1NC(=O)NNC(=O)c1ccc2ccccc2c1,19.1%
12,Cc1oc(-c2ccccc2F)nc1CS(=O)CC(=O)NC1CCCC1 (stereo not drawn),-6.26%
13,C=CCn1c(-c2ccc(=O)n(Cc3ccccc3)c2)n[nH]c1=S,12.3%
14,CC1(C(=O)NNC(=O)c2ccc(=O)oc2)CC1Br (stereo not drawn),8.15%
15,COC(=O)Cc1ccc(NC(=S)Nc2ccccn2)cc1,8.71%
16,COc1ccc(C(C)NC(=O)Cc2cccs2)cc1 (stereo not drawn),10.3%
17,Cl.NCCc1nnc(SCc2c(F)cccc2Cl)o1,10.3%
18,Cc1ccc(C(=O)OCC(=O)NCCc2ccccc2)cc1S(=O)(=O)N1CCOCC1,-17.2%
19,Cc1cc(C)cc(NC(=O)c2sc3nc4n(c(=O)c3c2C)CCC4)c1,-22.4%
20,Cc1cc(C)c2c(CC(=O)O)coc2c1,6.6%
21,CS(=O)(=O)N1CCC(C(=O)NCc2ccc(Cl)cc2)CC1,-5.91%
22,COc1ccc(-n2cnc3ccccc32)cc1,4.01%

row,SMILES,"hERG current change (%, negative = inhibition) at 10uM"
1,CCCCCN(C(=O)NC(=O)Nc1ccccc1OC)S(C)(=O)=O,8.76%
2,Cc1ccc(/C=C/C(=O)Nc2nc3ccccc3[nH]2)cc1,-8.89%
3,C[C@@]12C(=O)Nc3ccc(Cl)cc3C(=O)N1[C@H]1c3ccccc3OC[C@@H]1[C@@H]2c1ccccc1,24.8%
4,COc1ccc(CN(C)CC(O)COc2ccc(C(=O)c3ccccc3)cc2)c(OC)c1OC (stereo not drawn),-63.7%
5,COc1cc(NC(=O)CN2CCN(C(=O)C3CCCO3)CC2)c(OC)cc1Cl (stereo not drawn),-12.5%
6,COc1cc(S(=O)(=O)N2CCN(C)CC2)c(OC)cc1Cl,13.2%
7,COc1cccc(CN2CCN(Cc3cccc(Br)c3)CC2)c1OC.O=C(O)C(=O)O,-21.2%
8,CCN1CCN(c2ccc(S(=O)(=O)N3CCCCC3)cc2NC(=O)Cc2c(F)cccc2Cl)CC1,-8.09%
9,CCCC1=C(C(=O)OCC)C(c2cccs2)C(C#N)=C(N)O1 (stereo not drawn),0.909%
10,CNC(=S)N1CCN(c2ccc(OC)cc2)CC1,-6.28%
11,CCC1(C)N([O-])C(C)=C(c2ccccc2)[N+]1=O (stereo not drawn),9.85%
12,COc1ccccc1CNC(=O)COC(=O)C1CCN(S(=O)(=O)c2ccc(C)c(C)c2)CC1,-9.44%
13,COc1ccc(NC(=O)CNS(=O)(=O)c2ccccc2)cc1Cl,4.28%
14,Cc1cc(C)c2c(=O)[nH]c(SCC(=O)Nc3ccc(N(C)C)cc3)nc2n1,-2.77%
15,Cc1noc(NS(=O)(=O)c2ccc(NC(=O)C(F)(F)F)cc2)c1C,25.4%
16,Cc1cc(CN(C)Cc2c(C(=O)N3CCCCCCC3)nc3ccc(Cl)cn23)n[nH]1,-12.3%
17,CCOC(=O)c1cnc(-c2ccccc2)nc1N1CCOCC1,5.56%
18,O=C(Nc1nnc(C2CCCCC2)s1)c1ccco1,8.41%
19,CCCn1c(SCC(=O)Nc2ccc3c(c2)CCC3)n[nH]c1=O,2.63%
20,CC(=O)NC(CC(=O)N1CCCC1)c1ccccc1 (stereo not drawn),15.1%
21,Cc1ccc(NC(=O)CCNS(=O)(=O)c2ccc3[nH]c(=O)oc3c2)cc1N(C)C,14.4%
